# The supplement of paper PMC8728848
# This is one part of the list.
# B1: MIG/CXCL9 (Homo sapiens) (protein)
# chain: TPVVRKGRCSCISTNQGTIHLQSLKDLKQFAPSPSCEKIEIIIATLKNGVQTCLNPDSADVKELIKKTEKQVSQKKKQKNGKKHQKKKVLKVRKSQRSRQKKTT
# Columns and labels:
# Experiment in all cases: glycan array binding signal (z-score within array); higher = stronger binding
# Conditions in all cases: glycan notation: IUPAC condensed, linker removed
# [1] = biological target: Gal(b1-3)[Fuc(a1-4)]GlcNAc(b1-3)Gal(b1-4)[Fuc(a1-3)]GlcNAc
# Procedure, shortened: (§1)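 Arrays were curated from the Consortium for Functional Glycomics database, 3228 in total, and kept only where the protein sequence was available. Binding is expressed as a within-array Z-score. This score was averaged across arrays of the same protein sequence at different concentrations or buffers and across linkers, and negative values can be read as non-binding.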
# [2] = biological target: Gal(b1-3)[GlcNAc(b1-6)]GalNAc
# Procedure, shortened: as §1
# [3] = biological target: Gal(b1-3)[Neu5Ac(a2-6)]GalNAc
# Procedure, shortened: as §1
# [4] = biological target: Gal(b1-3)[Neu5Ac(a2-6)]GlcNAc(b1-6)Gal(b1-4)Glc
# Procedure, shortened: as §1
# [5] = biological target: Gal(b1-3)[Neu5Ac(b2-6)]GalNAc
# Procedure, shortened: as §1
# [6] = biological target: Gal(b1-4)GalNAc(a1-3)[Fuc(a1-2)]Gal(b1-4)GlcNAc
# Procedure, shortened: as §1
# [7] = biological target: Gal(b1-4)GalNAc(b1-3)[Fuc(a1-2)]Gal(b1-4)GlcNAc
# Procedure, shortened: as §1
# Gal(b1-4)Glc = biological target: Gal(b1-4)Glc
# Procedure, shortened: as §1
# Gal(b1-4)Glc6S = biological target: Gal(b1-4)Glc6S
# Procedure, shortened: as §1
# Gal(b1-4)GlcNAc = biological target: Gal(b1-4)GlcNAc
# Procedure, shortened: as §1
# [8] = biological target: Gal(b1-4)GlcNAc(b1-2)Man(a1-3)[Gal(b1-4)GlcNAc(b1-2)Man(a1-6)]Man(b1-4)GlcNAc(b1-4)GlcNAc
# Procedure, shortened: as §1
# [9] = biological target: Gal(b1-4)GlcNAc(b1-3)Gal(b1-4)Glc
# Procedure, shortened: as §1
# [10] = biological target: Gal(b1-4)GlcNAc(b1-3)Gal(b1-4)GlcNAc
# Procedure, shortened: as §1
# [11] = biological target: Gal(b1-4)GlcNAc(b1-3)Gal(b1-4)GlcNAc(b1-3)Gal(b1-4)GlcNAc
# Procedure, shortened: as §1
# [12] = biological target: Gal(b1-4)GlcNAc(b1-3)Gal(b1-4)[Fuc(a1-3)]GlcNAc(b1-3)Gal(b1-4)[Fuc(a1-3)]GlcNAc
# Procedure, shortened: as §1
# [13] = biological target: Gal(b1-4)GlcNAc(b1-3)GalNAc
# Procedure, shortened: as §1
# [14] = biological target: Gal(b1-4)GlcNAc(b1-3)[Gal(b1-4)GlcNAc(b1-6)]GalNAc
# Procedure, shortened: as §1
# [15] = biological target: Gal(b1-4)GlcNAc(b1-6)Gal(b1-4)GlcNAc(b1-6)GalNAc
# Procedure, shortened: as §1
# [16] = biological target: Gal(b1-4)GlcNAc(b1-6)GalNAc
# Procedure, shortened: as §1
# [17] = biological target: Gal(b1-4)GlcNAc(b1-6)[Gal(b1-3)]GalNAc
# Procedure, shortened: as §1
# Gal3S(b1-3)GalNAc = biological target: Gal3S(b1-3)GalNAc
# Procedure, shortened: as §1
# Gal3S(b1-3)GlcNAc = biological target: Gal3S(b1-3)GlcNAc
# Procedure, shortened: as §1
# [18] = biological target: Gal3S(b1-3)[Fuc(a1-4)]GlcNAc
# Procedure, shortened: as §1
# Gal3S(b1-4)Glc = biological target: Gal3S(b1-4)Glc
# Procedure, shortened: as §1
# Gal3S(b1-4)Glc6S = biological target: Gal3S(b1-4)Glc6S
# Procedure, shortened: as §1
# Gal3S(b1-4)GlcNAc = biological target: Gal3S(b1-4)GlcNAc
# Procedure, shortened: as §1
# Gal3S(b1-4)GlcNAc6S = biological target: Gal3S(b1-4)GlcNAc6S
# Procedure, shortened: as §1
# Gal3S6S(b1-4)GlcNAc = biological target: Gal3S6S(b1-4)GlcNAc
# Procedure, shortened: as §1
# Gal3S6S(b1-4)GlcNAc6S = biological target: Gal3S6S(b1-4)GlcNAc6S
# Procedure, shortened: as §1
# Gal4S(b1-4)GlcNAc = biological target: Gal4S(b1-4)GlcNAc
# Procedure, shortened: as §1
# Gal4S6S(b1-4)GlcNAc = biological target: Gal4S6S(b1-4)GlcNAc
# Procedure, shortened: as §1
# Gal6S(b1-4)Glc = biological target: Gal6S(b1-4)Glc
# Procedure, shortened: as §1
# Gal6S(b1-4)Glc6S = biological target: Gal6S(b1-4)Glc6S
# Procedure, shortened: as §1
# Gal6S(b1-4)GlcNAc = biological target: Gal6S(b1-4)GlcNAc
# Procedure, shortened: as §1
# GalNAc(a1-3)Gal = biological target: GalNAc(a1-3)Gal
# Procedure, shortened: as §1
# GalNAc(a1-3)GalNAc = biological target: GalNAc(a1-3)GalNAc
# Procedure, shortened: as §1
# [19] = biological target: GalNAc(b1-3)Gal(a1-4)Gal(b1-4)GlcNAc
# Procedure, shortened: as §1
# GalNAc(b1-3)GalNAc = biological target: GalNAc(b1-3)GalNAc
# Procedure, shortened: as §1
# GalNAc(b1-4)GlcNAc = biological target: GalNAc(b1-4)GlcNAc
# Procedure, shortened: as §1
# Glc(a1-4)Glc = biological target: Glc(a1-4)Glc
# Procedure, shortened: as §1
# Glc(a1-6)Glc(a1-6)Glc = biological target: Glc(a1-6)Glc(a1-6)Glc
# Procedure, shortened: as §1
# Glc(b1-4)Glc = biological target: Glc(b1-4)Glc
# Procedure, shortened: as §1
# Glc(b1-6)Glc = biological target: Glc(b1-6)Glc
# Procedure, shortened: as §1
# GlcA(b1-3)Gal = biological target: GlcA(b1-3)Gal
# Procedure, shortened: as §1
# GlcA(b1-6)Gal = biological target: GlcA(b1-6)Gal
# Procedure, shortened: as §1
binder,measurement,setting,value
B1,glycan array binding signal (z-score),[1],-0.501
same,glycan array binding signal (z-score),[2],-0.311
same,glycan array binding signal (z-score),[3],-0.165
same,glycan array binding signal (z-score),[4],-0.348
same,glycan array binding signal (z-score),[5],-0.32
same,glycan array binding signal (z-score),[6],-0.412
same,glycan array binding signal (z-score),[7],-0.339
same,glycan array binding signal (z-score),Gal(b1-4)Glc,-0.287
same,glycan array binding signal (z-score),Gal(b1-4)Glc6S,0.015
same,glycan array binding signal (z-score),Gal(b1-4)GlcNAc,-0.362
same,glycan array binding signal (z-score),[8],-0.436
same,glycan array binding signal (z-score),[9],-0.02
same,glycan array binding signal (z-score),[10],-0.3
same,glycan array binding signal (z-score),[11],-0.479
same,glycan array binding signal (z-score),[12],-0.446
same,glycan array binding signal (z-score),[13],-0.437
same,glycan array binding signal (z-score),[14],-0.45
same,glycan array binding signal (z-score),[15],1.71
same,glycan array binding signal (z-score),[16],-0.465
same,glycan array binding signal (z-score),[17],-0.424
same,glycan array binding signal (z-score),Gal3S(b1-3)GalNAc,-0.437
same,glycan array binding signal (z-score),Gal3S(b1-3)GlcNAc,-0.159
same,glycan array binding signal (z-score),[18],-0.071
same,glycan array binding signal (z-score),Gal3S(b1-4)Glc,-0.028
same,glycan array binding signal (z-score),Gal3S(b1-4)Glc6S,1.68
same,glycan array binding signal (z-score),Gal3S(b1-4)GlcNAc,-0.23
same,glycan array binding signal (z-score),Gal3S(b1-4)GlcNAc6S,2.28
same,glycan array binding signal (z-score),Gal3S6S(b1-4)GlcNAc,2.35
same,glycan array binding signal (z-score),Gal3S6S(b1-4)GlcNAc6S,5.28
same,glycan array binding signal (z-score),Gal4S(b1-4)GlcNAc,-0.245
same,glycan array binding signal (z-score),Gal4S6S(b1-4)GlcNAc,0.755
same,glycan array binding signal (z-score),Gal6S(b1-4)Glc,-0.013
same,glycan array binding signal (z-score),Gal6S(b1-4)Glc6S,2.35
same,glycan array binding signal (z-score),Gal6S(b1-4)GlcNAc,-0.128
same,glycan array binding signal (z-score),GalNAc(a1-3)Gal,-0.015
same,glycan array binding signal (z-score),GalNAc(a1-3)GalNAc,0.274
same,glycan array binding signal (z-score),[19],-0.321
same,glycan array binding signal (z-score),GalNAc(b1-3)GalNAc,-0.202
same,glycan array binding signal (z-score),GalNAc(b1-4)GlcNAc,-0.358
same,glycan array binding signal (z-score),Glc(a1-4)Glc,-0.178
same,glycan array binding signal (z-score),Glc(a1-6)Glc(a1-6)Glc,-0.405
same,glycan array binding signal (z-score),Glc(b1-4)Glc,-0.186
same,glycan array binding signal (z-score),Glc(b1-6)Glc,-0.376
same,glycan array binding signal (z-score),GlcA(b1-3)Gal,0.283
same,glycan array binding signal (z-score),GlcA(b1-6)Gal,0.173
